Source: the supplement of paper PMC4604168 (melanoma cell lines)
Some of the results follow. Single values are uncertain, as repeats are few or missing.

Key:
Assay in all cases: cell count relative to DMSO control; melanoma cells; higher = more viable cells
Conditions in all cases: library dose: standard library concentration; 72 h
SkMel28 = system: SkMel28
SkMel2 = system: SkMel2
SkMel30 = system: SkMel30
SkMel5 = system: SkMel5
UACC257 = system: UACC257
UACC62 = system: UACC62
WM115 = system: WM115
WM1716 = system: WM1716
WM1745 = system: WM1745
WM3526 = system: WM3526
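Note: cells treated in 1,536-well plates, then fixed and DAPI-stained, with nuclei counted from automated high-throughput microscope images.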

Row | SMILES | cell count (SkMel28) | cell count (SkMel2) | cell count (SkMel30) | cell count (SkMel5) | cell count (UACC257) | cell count (UACC62) | cell count (WM115) | cell count (WM1716) | cell count (WM1745) | cell count (WM3526)
1 | Cc1cn(-c2cc(NC(=O)c3ccc(C)c(Nc4nccc(-c5cccnc5)n4)c3)cc(C(F)(F)F)c2)cn1 [nilotinib] + Nc1ncn([C@H]2C[C@H](O)[C@@H](CO)O2)c(=O)n1 [decitabine] (first compound 1 µM, partner dose 0.5 µM) | 88.8% | 103% | 108% | 79.5% | 115% | 74% | 81.2% | 67% | 87.7% | 83.1%
2 | CC(C)C[C@H](NC(=O)[C@H](Cc1ccccc1)NC(=O)c1cnccn1)B(O)O [Bortezomib] + Clc1ccc(Nc2nnc(Cc3ccncc3)c3ccccc23)cc1 [vatalanib] (first compound 0.005 µM, partner dose 10 µM) | 12.6% | 35.1% | 26.3% | 20.9% | 66.2% | 56.2% | 20.2% | 13.9% | 5.19% | 30.2%
3 | Cc1cn(-c2cc(NC(=O)c3ccc(C)c(Nc4nccc(-c5cccnc5)n4)c3)cc(C(F)(F)F)c2)cn1 [nilotinib] + Cn1nnc2c(C(N)=O)ncn2c1=O [temozolomide] (first compound 1 µM, partner dose 10 µM) | 43% | 89.8% | 62.8% | 70.5% | 103% | 66.3% | 73.6% | 61.7% | 68.8% | 86.1%
4 | Cn1c(=O)n(-c2ccc(C(C)(C)C#N)cc2)c2c3cc(-c4cnc5ccccc5c4)ccc3ncc21 + NCC(=O)Nc1ccc(-n2nc(C(F)(F)F)cc2-c2ccc3c(ccc4ccccc43)c2)cc1 [OSU03012] (first compound 0.02 µM, partner dose 5 µM) | 25.5% | 45.6% | 40.2% | 60.4% | 72.9% | 48.6% | 64.2% | 59.2% | 29.6% | 60.9%
5 | Cn1c(=O)n(-c2ccc(C(C)(C)C#N)cc2)c2c3cc(-c4cnc5ccccc5c4)ccc3ncc21 + CN(C)S(=O)(=O)c1ccc2c(c1)/C(=C/c1cc3c([nH]1)CCCC3)C(=O)N2 [SU6656] (first compound 0.02 µM, partner dose 2 µM) | 59.9% | 80.7% | 96.5% | 73.6% | 84.8% | 78.9% | 55.2% | 75.8% | 83.7% | 72.5%
6 | Cc1cn(-c2cc(NC(=O)c3ccc(C)c(Nc4nccc(-c5cccnc5)n4)c3)cc(C(F)(F)F)c2)cn1 [nilotinib] + CO[C@@H]1[C@H](N(C)C(=O)c2ccccc2)C[C@H]2O[C@]1(C)n1c3ccccc3c3c4c(c5c6ccccc6n2c5c31)C(=O)NC4 [Midostaurin] (first compound 1 µM, partner dose 0.4 µM) | 58.4% | 18.7% | 58.7% | 47.6% | 70.7% | 69.7% | 58.4% | 47.3% | 26.4% | 60.2%
7 | Cn1c(=O)n(-c2ccc(C(C)(C)C#N)cc2)c2c3cc(-c4cnc5ccccc5c4)ccc3ncc21 + Nc1cccc2c1CN(C1CCC(=O)NC1=O)C2=O [lenalidomide] (first compound 0.02 µM, partner dose 5 µM) | 50.8% | 66% | 83% | 66.5% | 104% | 73.4% | 66.4% | 66.1% | 98.4% | 73.6%
8 | CC(C)C[C@H](NC(=O)[C@H](Cc1ccccc1)NC(=O)c1cnccn1)B(O)O [Bortezomib] + CN(NC(=O)CC(=O)NN(C)C(=S)c1ccccc1)C(=S)c1ccccc1 [STA4783] (first compound 0.005 µM, partner dose 0.03 µM) | 10.3% | 11.9% | 44.1% | 26.9% | 83% | 38.5% | 20.2% | 23.3% | 19.8% | 39.9%
9 | Cc1cn(-c2cc(NC(=O)c3ccc(C)c(Nc4nccc(-c5cccnc5)n4)c3)cc(C(F)(F)F)c2)cn1 [nilotinib] + COc1ccc(C2=N[C@@H](c3ccc(Cl)cc3)[C@@H](c3ccc(Cl)cc3)N2C(=O)N2CCNC(=O)C2)c(OC(C)C)c1 [Nutlin-3] (first compound 1 µM, partner dose 0.5 µM) | 59.1% | 76.7% | 95.6% | 50.1% | 81.7% | 57.6% | 70.8% | 71.6% | 77.5% | 81.5%
10 | Cn1c(=O)n(-c2ccc(C(C)(C)C#N)cc2)c2c3cc(-c4cnc5ccccc5c4)ccc3ncc21 + Nc1ncn([C@H]2C[C@H](O)[C@@H](CO)O2)c(=O)n1 [decitabine] (first compound 0.02 µM, partner dose 0.5 µM) | 39% | 62.9% | 79.8% | 58.6% | 96.6% | 58.3% | 61.3% | 61% | 70.2% | 68.8%
11 | Cc1cc(Nc2cc(N3CCN(C)CC3)nc(/C=C/c3ccccc3)n2)n[nH]1 + NC1(c2ccc(-c3nc4ccn5c(=O)[nH]nc5c4cc3-c3ccccc3)cc2)CCC1 [MK2206] (first compound 0.2 µM, partner dose 2 µM) | 46% | 68.5% | 71.3% | 61.1% | 94.5% | 66.8% | 63.7% | 91.7% | 66.4% | 65.7%
12 | COc1ccc(C2=N[C@@H](c3ccc(Cl)cc3)[C@@H](c3ccc(Cl)cc3)N2C(=O)N2CCNC(=O)C2)c(OC(C)C)c1 [Nutlin-3] + CC(C)(C)c1cnc(CSc2cnc(NC(=O)C3CCNCC3)s2)o1 [SNS-032] (first compound 0.5 µM, partner dose 0.05 µM) | 33.3% | 65.8% | 70.3% | 45% | 75.3% | 47.2% | 58.4% | 53.8% | 72.3% | 86.7%
13 | Cc1cn(-c2cc(NC(=O)c3ccc(C)c(Nc4nccc(-c5cccnc5)n4)c3)cc(C(F)(F)F)c2)cn1 [nilotinib] + COc1cc(Nc2ncc(F)c(Nc3ccc4c(n3)NC(=O)C(C)(C)O4)n2)cc(OC)c1OC [Tamatinib] (first compound 1 µM, partner dose 2 µM) | 70.4% | 107% | 93.4% | 61.4% | 85% | 92.1% | 101% | 20.5% | 46.6% | 67.3%
14 | Cn1c(=O)n(-c2ccc(C(C)(C)C#N)cc2)c2c3cc(-c4cnc5ccccc5c4)ccc3ncc21 + CC1(C)NC(=O)N(c2ccc([N+](=O)[O-])c(C(F)(F)F)c2)C1=O [nilutamide] (first compound 0.02 µM, partner dose 5 µM) | 33.4% | 54.8% | 57% | 51.2% | 86.9% | 59.8% | 50.7% | 56.6% | 56.9% | 61.2%
15 | COc1ccc(C2=N[C@@H](c3ccc(Cl)cc3)[C@@H](c3ccc(Cl)cc3)N2C(=O)N2CCNC(=O)C2)c(OC(C)C)c1 [Nutlin-3] + NCC(=O)Nc1ccc(-n2nc(C(F)(F)F)cc2-c2ccc3c(ccc4ccccc43)c2)cc1 [OSU03012] (first compound 0.5 µM, partner dose 5 µM) | 20.7% | 33.3% | 53.5% | 55.9% | 71.8% | 59.3% | 68.7% | 72.4% | 57.3% | 47.6%
16 | CC(C)C[C@H](NC(=O)[C@H](Cc1ccccc1)NC(=O)c1cnccn1)B(O)O [Bortezomib] + C[C@]1(c2nc3c(C(N)=O)cccc3[nH]2)CCCN1 [Veliparib] (first compound 0.005 µM, partner dose 7 µM) | 19.4% | 50% | 32.1% | 28.2% | 73.3% | 49.8% | 29.6% | 12.9% | 21.7% | 23.2%
17 | Cn1c(=O)n(-c2ccc(C(C)(C)C#N)cc2)c2c3cc(-c4cnc5ccccc5c4)ccc3ncc21 + Nc1nc(F)nc2c1ncn2[C@@H]1O[C@H](CO)[C@@H](O)[C@@H]1O [fludarabine] (first compound 0.02 µM, partner dose 1 µM) | 1.62% | 2.32% | 21.9% | 30.5% | 29.6% | 64% | 69.8% | 78.2% | 70.8% | 23.3%
18 | Cn1c(=O)n(-c2ccc(C(C)(C)C#N)cc2)c2c3cc(-c4cnc5ccccc5c4)ccc3ncc21 + C=C(c1ccc(C(=O)O)cc1)c1cc2c(cc1C)C(C)(C)CCC2(C)C [Bexarotene] (first compound 0.02 µM, partner dose 10 µM) | 38.4% | 62.7% | 65.4% | 81.8% | 92.8% | 60.8% | 73.4% | 78.3% | 73.4% | 58.8%
